Test results published in PubChem BioAssay AID504339 (National Center for Advancing Translational Sciences (NCATS), 2011).
About 17,000 (4.4%) of roughly 390,000 compounds were called active. Inconclusive means that the source gave no clear call. Such entries were picked first, then a sample of the others. Calls come from the whole dose curve; as a rule, active = well fitted inhibition curve with a large enough effect; inconclusive = small, poorly fitted or top-dose-only effect; inactive = no such curve, though single readings can be large or run the other way. Potencies of inconclusive entries are doubtful fits and often do not repeat.

target: Lysine-specific demethylase 4A (Homo sapiens) (UniProt O75164); assay: qHTS Assay for Inhibitors of JMJD2A-Tudor Domain; conditions: AlphaScreen JMJD2A-Tudor / H3K4me3 peptide binding; activity change, negative = inhibition: at 114 µM (top of the series); note: nearly all actives have a fitted effect of over 50% in size
% is set by controls: 0 for no effect and ±100 for the full control effect; potency is the fitted concentration of half-maximal effect; tags give direction and shape of the fitted curve.

Chain of UniProt O75164 (O75164 whole entry, looked up, the tested form may be a part): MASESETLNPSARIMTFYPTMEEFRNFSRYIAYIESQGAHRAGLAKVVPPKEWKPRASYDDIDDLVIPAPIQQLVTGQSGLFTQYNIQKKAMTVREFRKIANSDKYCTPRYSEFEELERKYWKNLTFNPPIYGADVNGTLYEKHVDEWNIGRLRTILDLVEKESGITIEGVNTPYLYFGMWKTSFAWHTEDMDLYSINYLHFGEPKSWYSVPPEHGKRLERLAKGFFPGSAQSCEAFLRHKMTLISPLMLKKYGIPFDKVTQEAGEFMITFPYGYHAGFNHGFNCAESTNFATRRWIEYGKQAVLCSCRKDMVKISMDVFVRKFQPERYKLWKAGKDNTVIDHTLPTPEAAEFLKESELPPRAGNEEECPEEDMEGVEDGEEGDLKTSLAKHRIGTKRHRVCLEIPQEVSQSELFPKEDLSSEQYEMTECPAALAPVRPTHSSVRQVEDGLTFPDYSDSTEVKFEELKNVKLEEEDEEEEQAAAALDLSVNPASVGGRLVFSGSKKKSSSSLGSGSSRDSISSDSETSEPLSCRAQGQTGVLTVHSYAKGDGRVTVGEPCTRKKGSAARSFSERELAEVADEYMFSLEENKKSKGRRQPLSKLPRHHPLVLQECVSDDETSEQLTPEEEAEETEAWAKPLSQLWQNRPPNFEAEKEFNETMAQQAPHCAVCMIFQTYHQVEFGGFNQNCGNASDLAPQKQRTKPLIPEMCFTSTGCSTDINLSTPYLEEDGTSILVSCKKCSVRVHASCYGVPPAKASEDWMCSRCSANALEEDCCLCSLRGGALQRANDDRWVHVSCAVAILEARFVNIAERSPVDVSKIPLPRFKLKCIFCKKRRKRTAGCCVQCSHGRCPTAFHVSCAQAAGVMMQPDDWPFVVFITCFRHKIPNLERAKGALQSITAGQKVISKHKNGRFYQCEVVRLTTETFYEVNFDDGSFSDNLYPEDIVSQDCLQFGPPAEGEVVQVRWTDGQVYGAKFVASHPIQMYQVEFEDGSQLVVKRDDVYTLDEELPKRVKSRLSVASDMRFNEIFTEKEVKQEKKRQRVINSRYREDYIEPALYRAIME

SMILES | Potency | activity change, negative = inhibition
Cc1ccc(OCC(=O)Nc2cc(C(=O)O)cc(C(=O)O)c2)cc1C | active: 8.91 µM | 
O=C(NCCc1ccccc1)C(=O)NCC(c1cccnc1)N1CCN(c2ccc(F)cc2)CC1 (stereo unspecified) |  | inactive: -29.9%
O=C(CCn1nc(-c2ccc(Cl)cc2)ccc1=O)N1CCN(c2ccccc2)CC1 |  | inactive: -28.8%
CC(C(=O)NNS(=O)(=O)c1cccc(C(F)(F)F)c1)n1nnc(N2CCOCC2)n1 (stereo unspecified) | active: 14.1 µM | 
CCn1c(=S)sc2c(=O)[nH]c(C)nc21 |  | inactive: -8.33%
O=C(NC1CCN(Cc2cccc([N+](=O)[O-])c2)CC1)c1ccccc1 |  | inactive: -9.25%
O=C(c1ccco1)c1cn(CCOc2ccc(Cl)cc2)c2ccccc12 |  | inactive: -1.72%
CCOC(=O)C(=O)NNc1ccc(F)cc1 | inconclusive: 89.1 µM [inhibitor, single point] | 
CN1C(=O)c2cccc3c(S(=O)(=O)Nc4ccc(O)c(C(=O)O)c4)ccc1c23 |  | inactive: -18.7%
O=C(O)c1ccc2c(c1)C(=O)N([C@H](Cc1ccc(O)c(O)c1)C(=O)O)C2=O | active: 89.1 µM | 
Cc1ccc(N=Nc2c(C)[nH]n(-c3ccccc3)c2=O)cc1Br | inconclusive: 7.94 µM [inhibitor, full curve] | 
CC1(C)CC(N2CCCC2)=CC(=[N+]2CCCCCC2)C1 | inconclusive: 10 µM [inhibitor, partial curve] | 
CCS(=O)(=O)N1CCN(c2ccc([N+](=O)[O-])c(NCc3cccnc3)c2)CC1 | inconclusive: 56.2 µM [inhibitor, partial curve] | 
O=C1Nc2ccccc2SC(c2ccccc2)C1O (stereo unspecified) | active: 56.2 µM | 
CSc1ccccc1C(=O)N1CCN(S(=O)(=O)c2sc(C(=O)O)c(C)c2C(=O)O)CC1 | inconclusive: 79.4 µM [inhibitor, partial curve] | 
Cc1cc(/C=N/NC(=O)c2ccc(O)cc2)c(C)n1CC(C)C | inconclusive: 56.2 µM [inhibitor, partial curve] | 
Cc1cccc(NCc2ccccc2O)c1C | inconclusive: 79.4 µM [inhibitor, partial curve] | 
CCOC(=O)c1c(S(=O)(=O)N2CCC(C(=O)NCc3cccc(C)c3)CC2)c(C)n(C)c1C |  | inactive: -26.7%
C=CCN(CC=C)CCOc1cc(C)ccc1[N+](=O)[O-] |  | inconclusive: -100% [inhibitor]
CCCCNc1nc(-c2ccccc2)nc(-n2ccnc2)n1 | inconclusive: 89.1 µM [inhibitor, single point] | 
O=C(O)c1ccccc1Nc1ccccc1C(=O)O | inconclusive: 28.2 µM [inhibitor, full curve] | 
Cc1nnc(SCC2=C(C(=O)O)N3C(=O)C(NC(=O)Cn4ncc(Cl)c4C)C3SC2)s1 (stereo unspecified) | inconclusive: 35.5 µM [inhibitor, full curve, poor fit] | 
Cc1cc(N2CCN(C)CC2)nc2ccc(NC(=O)c3ccc(C(C)(C)C)cc3)cc12 | inconclusive: 50.1 µM [inhibitor, partial curve] | 
CC(C)NS(=O)(=O)c1ccc(OCC(=O)Nc2cccc(F)c2)cc1 |  | inactive: 9.59%

SMILES | Potency | activity change, negative = inhibition
Cc1ccc(S(=O)(=O)N2CC=C(c3c(C)n(C)c4ccccc34)CC2)cc1 | inconclusive: 17.8 µM [inhibitor, partial curve] | 
COc1cc(/C=C2\C(=O)ON=C2c2ccccc2)cc(Cl)c1O | active: 22.4 µM | 
Cc1ccn2c(Nc3c(C)cccc3C)c(-c3ccsc3)nc2c1 | inconclusive: 44.7 µM [inhibitor, partial curve] | 
COc1ccc(N2CC(NC(=O)c3cccs3)CC2=O)cc1 (stereo unspecified) |  | inactive: 3.57%
N#Cc1c(Cl)nc(-c2ccncc2)nc1-c1ccccc1 | inconclusive: 56.2 µM [inhibitor, partial curve, poor fit] | 
O=[N+]([O-])c1cccc(-c2ccc(C(=S)N3CCN(c4ccccc4)CC3)o2)c1 | inconclusive: 7.94 µM [inhibitor, full curve] | 
CCN1C(=O)/C(=C\c2ccco2)C(C(=O)OC)=C1C | inconclusive: 50.1 µM [inhibitor, partial curve] | 
CC1(c2nnc(-c3ccccc3)o2)CC(c2cccc(Cl)c2)=NO1 (stereo unspecified) |  | inactive: 37.3%
O=C(c1ccc(-c2nc3ccccc3s2)o1)N1CCN(c2ccccc2O)CC1 | inconclusive: 35.5 µM [inhibitor, full curve, poor fit] | 
COc1cc2[nH]c(=O)n(CCCCCC(=O)N3CC=C(c4ccccc4)CC3)c(=O)c2cc1OC | inconclusive: 56.2 µM [inhibitor, partial curve] | 
Cc1nc2sc(C(c3cccs3)N3CCN(c4cccc(Cl)c4)CC3)c(O)n2n1 (stereo unspecified) | inconclusive: 63.1 µM [inhibitor, partial curve, poor fit] | 
O=C(NC(=S)Nc1ccc2c(c1)OCCO2)c1cccc(Br)c1 | inconclusive: 70.8 µM [inhibitor, single point] | 
C=CCN(C(=O)CCC(=O)Nc1cc(C)on1)C(C(=O)NC1CCCC1)c1ccc(CC)cc1 (stereo unspecified) | inconclusive: 39.8 µM [inhibitor, single point] | 
C=C(C)C(O)Cc1c(OC)ccc(C(=O)/C=C/c2ccc(O)cc2)c1O (stereo unspecified) | inconclusive: 44.7 µM [inhibitor, partial curve] | 
CC(C)(C)CC(=O)Nc1ccc(S(=O)(=O)N2CCCC2)cc1 | inconclusive: 100 µM [inhibitor, single point] | 
OCCN(Cc1ccccc1)Cc1ccccc1O | inconclusive: 0.631 µM [inhibitor, full curve, poor fit] | 
O=C(NCc1ccco1)C1Cc2ccccc2CN1S(=O)(=O)c1ccccc1F (stereo unspecified) | active: 39.8 µM | 
Cn1c(N)c(C(=O)CSc2nnc(C3CC3)n2-c2ccccc2)c(=O)n(C)c1=O |  | inactive: -4.51%
Clc1ccc(/C=N/N2CCCCC2)cc1 | active: 50.1 µM | 
c1ccc(CNc2nc3ccccc3n3cnnc23)cc1 | inconclusive: 35.5 µM [inhibitor, partial curve] | 
Nc1nonc1-n1nnc(C(=O)N/N=C/c2ccccc2Br)c1CN1CCCC1 |  | inactive: -22.6%
CN(c1ccccc1)S(=O)(=O)c1ccc(C(=O)Nc2nnc(C3CC3)o2)cc1 |  | inactive: -23.8%
Cc1ccc(N2CC(C(=O)Nc3nc4ccc(S(C)(=O)=O)cc4s3)CC2=O)cc1 (stereo unspecified) |  | inactive: -22.1%
O=C(O)CC/C(=N\Nc1ccc(S(=O)(=O)N2CCOCC2)cc1[N+](=O)[O-])c1cccs1 | inconclusive: 56.2 µM [inhibitor, partial curve] | 

SMILES | Potency | activity change, negative = inhibition
COc1cc(C2CC(=O)N3CN(Cc4ccco4)CSC3=C2C#N)ccc1OCc1ccccc1 (stereo unspecified) | active: 22.4 µM | 
C=CC(=O)Nc1cccc(Oc2ccnc3[nH]ccc23)c1 | active: 79.4 µM | 
Cc1[nH]c2ccccc2c1C(=O)C(=O)NCCOc1ccccc1 |  | inactive: -11.7%
Cn1c(=O)c([N+](=O)[O-])c(Cl)c2ccccc21 |  | inactive: -4.51%
COc1ccc(Cl)cc1NC(=O)NN1CCN(C)CC1 |  | inactive: 3.09%
COc1ccc(C)cc1NC(=O)N1CCC(CN2CCOCC2)CC1 |  | inactive: -15.5%
COc1ccc(OC)c(N(CC(=O)N2CCN(c3cc(Cl)ccc3C)CC2)S(C)(=O)=O)c1 | inconclusive: 63.1 µM [inhibitor, partial curve] | 
Cn1cccc1C(C#N)c1ncc(C(F)(F)F)cc1Cl (stereo unspecified) | inconclusive: 39.8 µM [inhibitor, partial curve] | 
Cn1c(=N)n(CC(=O)C(C)(C)C)c2ccccc21 |  | inactive: -30.9%
CCn1c(SCC(=O)N2CCCCC2C)nnc1-c1ccc(S(=O)(=O)N2CCN(C)CC2)cc1 (stereo unspecified) | inconclusive: 79.4 µM [inhibitor, partial curve] | 
Cc1ccc(-n2cc(CNCCCn3ccnc3C)c(-c3ccc(F)cc3)n2)cc1 | inconclusive: 56.2 µM [inhibitor, partial curve] | 
Cc1sc(NC(=O)c2ccco2)c(C(c2cccnc2)N2CCN(c3ccc(F)cc3)CC2)c1C (stereo unspecified) | inconclusive: 25.1 µM [inhibitor, full curve] | 
CCN1CCN(c2ccc(S(=O)(=O)N3CCCCC3)cc2NC(=O)COc2cc(C)ccc2Cl)CC1 | inconclusive: 25.1 µM [inhibitor, full curve] | 
CCc1ccc(OCC(=O)NNC(=O)CSc2ncnc3sc(C)c(C)c23)cc1 | inconclusive: 39.8 µM [inhibitor, partial curve] | 
COc1ccc(C(=O)Nc2ccc3nc4c(c(Nc5ccc(OC)c(OC)c5)c3c2)CCCC4)c(OC)c1 | inconclusive: 56.2 µM [inhibitor, partial curve] | 
S=c1[nH]nc(-c2cc(-c3ccccc3)n[nH]2)n1/N=C/c1cccs1 | inconclusive: 28.2 µM [inhibitor, full curve] | 
O=C(Nc1ccc(Cl)cc1)Nc1ccccc1Sc1ncc([N+](=O)[O-])s1 | inconclusive: 22.4 µM [inhibitor, full curve] | 
CCCC(=O)N1N=C(c2ccccc2)CC1c1cn(C)c2ccccc12 (stereo unspecified) | inconclusive: 39.8 µM [inhibitor, partial curve] | 
COc1ccccc1CNC(=O)C1(C)Oc2cccnc2NC1=O (stereo unspecified) | inconclusive: 44.7 µM [inhibitor, single point] | 
COc1cc(C(=O)N/N=C/c2ccc3c(c2)c2ccccc2n3C)ccc1O |  | inactive: -13.9%
S=c1[nH]nc(Cc2ccc(Cl)cc2)n1-c1ccc2c(c1)OCCO2 | inconclusive: 20 µM [inhibitor, full curve] | 
C#CCOCCOCCOCCNc1nc(N2CCN(C(=O)[C@H](CCCCN)n3cc(CN)nn3)CC2)nc(N2CCN(C(=O)[C@H](CCC(=O)O)n3cc(CN)nn3)CC2)n1 | inconclusive: 79.4 µM [inhibitor, single point] | 
CCOc1cc2[nH]c(=S)n(CCCN3CCCC3=O)c(=O)c2cc1OCC | active: 22.4 µM | 
